Columns and labels:
[1] = target: T1, human B7-H3 expressed on a cell surface (human cancer cell lines) (human, UniProt Q5ZPR3 29-534); assay: flow cytometry, HT29 cells, antibody 10 ug/ml
T1 construct: whole, on cells; also called cell surface expression B7-H3 antigen
T1 sequence (looked up): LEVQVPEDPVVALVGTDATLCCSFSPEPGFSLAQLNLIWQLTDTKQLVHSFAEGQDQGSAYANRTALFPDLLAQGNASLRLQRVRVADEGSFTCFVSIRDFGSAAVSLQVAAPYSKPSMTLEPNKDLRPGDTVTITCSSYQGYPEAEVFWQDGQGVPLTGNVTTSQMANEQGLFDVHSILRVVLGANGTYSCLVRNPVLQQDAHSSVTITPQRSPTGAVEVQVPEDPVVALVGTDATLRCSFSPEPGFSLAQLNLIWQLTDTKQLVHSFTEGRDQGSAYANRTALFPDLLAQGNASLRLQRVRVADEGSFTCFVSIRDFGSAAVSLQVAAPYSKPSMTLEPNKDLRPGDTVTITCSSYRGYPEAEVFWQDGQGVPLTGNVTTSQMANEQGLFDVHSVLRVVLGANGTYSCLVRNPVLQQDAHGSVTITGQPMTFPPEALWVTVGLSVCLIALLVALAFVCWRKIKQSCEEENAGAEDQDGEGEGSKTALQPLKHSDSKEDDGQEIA
Excerpt: (§1) Using various kinds of cancer cells A2780 (human ovarian cancer, ECACC, 93112519), SKOV-3 (human ovarian adenocarcinoma, ATCC® HTB-77™) OVCAR-3 (human ovarian adenocarcinoma, ATCC® HTB-161™), HCT116 (colon cancer cell, ThermoFIshcer Sci), HT29 (olorectal adenocarcinoma, ATCC® HTB-38™), DLD-1 (colorectal adenocarcinoma cell lines, ATCC® CCL-221™), Calu-6 (Non-small-cell lung carcinoma, ATCC® HTB-56™), HCC1954 (TNM stage IIA, grade 3, ductal carcinoma, ATCC® CRL-2338™), HCC1187 (TNM stage IIA, ATCC® CLC-2322™), renal cancer cell line 786-0 (renal cell adenocarcinoma, ATCC® CRL-1932™), A498 (kidney carcinoma, ATCC® HTB-44™), Panc-1 (pancreas epithelioid carcinoma, TCC CRL-1469™), NCI-N87 (gastric carcinoma, TCC CRL-5822™), HeLa (cervix adenocarcinoma, ATCC® CCL-2™), JeKo-1 (Lymphoma, ATCC® CRL-3006™) and FACSCalibur (BD Biosciences) device, the degree of binding of anti-B7-H3 antibody to B7-H3 was measured as follows.
(§2) After dissociating each cell line and washing it with PBS buffer, the number of cells was counted and adjusted to 2×10^5 cells/200 µl PBS, and then was treated with 10 µg/ml of B7-H3 monoclonal antibodies prepared in Example 2. Reaction was allowed at 4° C. for 1 hr. After washing the reacted cells in PBS, the FITC-labeled constant region (Fc)-specific antibody (Goat anti-human IgG FITC conjugate, Fc specific, Sigma, F9512, concentration: 2.0 mg/ml)) was diluted by 1:500 and added 100 µl per well. and Reaction was allowed at 4° C. for 1 hr. After the reaction, cells were washed in PBS and analyzed using the FACSCalibur device. The negative control group was treated by the FITC-labeled constant region (Fc) specific antibody only. To compare expression degrees of B7-H3 among different cancer cell lines, the value for the peak shift in the experimental groups treated with the B7-H3 monoclonal antibody was divided by the value for the peak shift in the negative control group (MFI Ratio, Mean Fluorescence Intensity Ratio).

[2] = target: T1, human B7-H3 expressed on a cell surface …; assay: flow cytometry, Hela cells, antibody 10 ug/ml
Excerpt: as §1, §2

[3] = target: T1, human B7-H3 expressed on a cell surface …; assay: flow cytometry, 786-0 cells, antibody 10 ug/ml
Excerpt: as §1, §2

[4] = target: T1, human B7-H3 expressed on a cell surface …; assay: flow cytometry, A-498 cells, antibody 10 ug/ml
Excerpt: as §1, §2

[5] = target: T2, recombinant human B7-H3 protein (bought antigen used for ELISA analysis and T cell activity analysis) (human, UniProt Q5ZPR3 29-461); assay: ELISA on plate-coated recombinant human B7-H3 (1 ug/ml), HRP anti-human IgG F(ab')2 detection
T2 construct: range 1-461; also called extracellular domain (ECD) of B7-H3 protein; not shown: C-terminal histidine tag or Fc region of human IgG1 (Sino Biological 11188-H02H)
T2 sequence (looked up): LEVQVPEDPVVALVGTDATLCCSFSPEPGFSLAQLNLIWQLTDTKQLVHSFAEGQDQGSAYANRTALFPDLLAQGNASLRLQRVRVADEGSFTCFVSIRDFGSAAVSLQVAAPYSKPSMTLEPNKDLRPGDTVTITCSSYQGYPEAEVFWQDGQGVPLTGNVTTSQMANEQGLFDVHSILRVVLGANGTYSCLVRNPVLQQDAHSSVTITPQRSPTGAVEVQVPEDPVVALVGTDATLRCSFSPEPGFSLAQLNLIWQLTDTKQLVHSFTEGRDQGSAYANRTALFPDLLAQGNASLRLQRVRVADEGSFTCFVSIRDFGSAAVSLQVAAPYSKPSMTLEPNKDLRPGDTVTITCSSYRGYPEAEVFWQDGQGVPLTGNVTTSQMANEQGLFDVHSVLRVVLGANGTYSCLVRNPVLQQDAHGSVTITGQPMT
Method: Specifically, after diluting the recombinant human B7-H3 protein at a concentration of 1 µg/ml and putting it into a 96-well plate (Nunc-Immuno Plates, NUNC) in 100 µl per well, it was reacted at 4° C. for 16 hrs for coating. The recombinant human B7-H3 protein used in Example 1 was used here.
Then, after removing the protein and washing it with PBST, a PBS buffer comprising 1% BSA (bovine serum albumin) was put at 200 µl per well and it was reacted at 37° C. for 2 hrs to block non-specific binding. Then, after diluting anti-B7-H3 antibodies prepared in Example 2 at a concentration of 10 µg/ml on the 96-well plate, 100 µl was put in each well and it was reacted at 37° C. for 1 hr. Then after it was washed with PBST. In order to detect antibodies bound to human B7-H3, HRP-connected anti-human IgG F(ab')2 antibody (Goat anti-Human IgG F(ab')2 Cross-Adsorbed Secondary Antibody, HRP, Pierce, 31414) was diluted by 1:10,000 in PBS comprising 1% bovine serum albumin (BSA), and 100 µl was put per well and it was reacted at 37° C. for about 1 hr. After washing it with PBST again, TMB (Tetramethylbenzidine, Sigma, T0440) 100 µl was put to develop color. After reacting it at RT for 5-10 min, 50 µl of 1N H_2SO_4 was put to finish the reaction, and the absorbance at 450 nm and 650 nm was measured by using a micro plate reader (molecular device).

B1: anti-B7-H3 antibody D8G (full IgG form) (antibody)
heavy: EVQLLESGGGLVQPGGSLRLSCAASGFTFSSYSMSWVRQAPGKGLEWVSGIYSDGSNTYYADSVKGRFTISRDNSKNTLYLQMNSLRAEDTAVYYCAKMLHRFDYWGQGTLVTVSS[human IgG1 constant region not shown]
light: QSVLTQPPSASGTPGQRVTISCSGSSSNIGSNSVTWYQQLPGTAPKLLIYADSQRPSGVPDRFSGSKSGTSASLAISGLRSEDEADYYCGTWDSSLNAYVFGGGTKLTVLGQPKAAPSVTLFPPSSEELQANKATLVCLISDFYPGAVTVAWKADSSPVKAGVETTTPSKQSNNKYAASSYLSLTPEQWKSHRSYSCQVTHEGSTVEKTVAPAECS
With B1 the “MFI Ratio” value [1] was 11.9 ratio, the “MFI Ratio” value [2] was 30.2 ratio and the “MFI Ratio” value [3] was 22 ratio. For the same binder, the “MFI Ratio” value [4] was 25 ratio and the “EC50 (read off the curve)” value [5] was about 0.2 nM.

B2: anti-B7-H3 antibody 10F11 (full IgG form) (antibody)
heavy: EVQLLESGGGLVQPGGSLRLSCAASGFTFSSYGMSWVRQAPGKGLEWVSGIYSGGSSKYYADSVKGRFTISRDNSKNTLYLQMNSLRAEDTAVYYCAKNRLRFDYWGQGTLVTVSS[human IgG1 constant region not shown]
light: QSVLTQPPSASGTPGQRVTISCTGSSSNIGSNSVTWYQQLPGTAPKLLIYSDSHRPSGVPDRFSGSKSGTSASLAISGLRSEDEADYYCGTWDASLNAYVFGGGTKLTVLGQPKAAPSVTLFPPSSEELQANKATLVCLISDFYPGAVTVAWKADSSPVKAGVETTTPSKQSNNKYAASSYLSLTPEQWKSHRSYSCQVTHEGSTVEKTVAPAECS
For B2, the “MFI Ratio” value [1] was 18.7 ratio, the “MFI Ratio” value [2] was 40.6 ratio and the “MFI Ratio” value [3] was 34 ratio. The “MFI Ratio” value [4] was 35 ratio and the “EC50 (read off the curve)” value [5] was about 0.2 nM.

B3: anti-B7-H3 antibody B5 (full IgG form) (antibody)
heavy: EVQLLESGGGLVQPGGSLRLSCAASGFTFSDYAMSWVRQAPGKGLEWVSSISSGSGSIYYADSVKGRFTISRDNSKNTLYLQMNSLRAEDTAVYYCAKNLIPLDYWGQGTLVTVSS[human IgG1 constant region not shown]
light: QSVLTQPPSASGTPGQRVTISCSGSSSNIGSNAVSWYQQLPGTAPKLLIYYNSHRPSGVPDRFSGSKSGTSASLAISGLRSEDEADYYCGSWDASLNAYVFGGGTKLTVLGQPKAAPSVTLFPPSSEELQANKATLVCLISDFYPGAVTVAWKADSSPVKAGVETTTPSKQSNNKYAASSYLSLTPEQWKSHRSYSCQVTHEGSTVEKTVAPAECS
For B3, the “MFI Ratio” value [1] was 17.6 ratio, the “MFI Ratio” value [2] was 38.7 ratio and the “MFI Ratio” value [3] was 32 ratio. The “MFI Ratio” value [4] was 35 ratio and the “EC50 (read off the curve)” value [5] was about 0.1 nM.

B4: anti-B7-H3 antibody C4I (full IgG form) (antibody)
heavy: EVQLLESGGGLVQPGGSLRLSCAASGFTFSGYYMSWVRQAPGKGLEWVSLISPSSGSIYYADSVKGRFTISRDNSKNTLYLQMNSLRAEDTAVYYCAKGLTKFDYWGQGTLVTVSS[human IgG1 constant region not shown]
light: QSVLTQPPSASGTPGQRVTISCTGSSSNIGSNDVSWYQQLPGTAPKLLIYANSHRPSGVPDRFSGSKSGTSASLAISGLRSEDEADYYCGSWDDSLSGYVFGGGTKLTVLGQPKAAPSVTLFPPSSEELQANKATLVCLISDFYPGAVTVAWKADSSPVKAGVETTTPSKQSNNKYAASSYLSLTPEQWKSHRSYSCQVTHEGSTVEKTVAPAECS
notes: also called C41
For B4, the “MFI Ratio” value [1] was 12.7 ratio, the “MFI Ratio” value [2] was 26.1 ratio and the “MFI Ratio” value [3] was 24 ratio. For the same binder, the “MFI Ratio” value [4] was 26 ratio and the “EC50 (read off the curve)” value [5] was about 0.2 nM.

B5: anti-B7-H3 antibody F6V (full IgG form) (antibody)
heavy: EVQLLESGGGLVQPGGSLRLSCAASGFTFSDYAMSWVRQAPGKGLEWVSGISPGGSNTYYADSVKGRFTISRDNSKNTLYLQMNSLRAEDTAVYYCAKDAWIARLLLFDYWGQGTLVTVSS[human IgG1 constant region not shown]
light: QSVLTQPPSASGTPGQRVTISCSGSSSNIGSNAVTWYQQLPGTAPKLLIYYNNKRPSGVPDRFSGSKSGTSASLAISGLRSEDEADYYCGTWDDSLSGYVFGGGTKLTVLGQPKAAPSVTLFPPSSEELQANKATLVCLISDFYPGAVTVAWKADSSPVKAGVETTTPSKQSNNKYAASSYLSLTPEQWKSHRSYSCQVTHEGSTVEKTVAPAECS
For B5, the “MFI Ratio” value [1] was 15.9 ratio, the “MFI Ratio” value [2] was 42.7 ratio and the “MFI Ratio” value [3] was 33 ratio. The “MFI Ratio” value [4] was 37 ratio and the “EC50 (read off the curve)” value [5] was about 0.1 nM.
